According to PubChem BioAssay AID504333 (National Center for Advancing Translational Sciences (NCATS), 2011):
In all, about 360,000 compounds went through this assay and about 16,000 (4.4%) were called active. Inconclusive results, whose numbers are uncertain, are shown with a selection of clear calls. Calls come from the whole dose curve; as a rule, active = well fitted inhibition curve with a large enough effect; inconclusive = small, poorly fitted or top-dose-only effect; inactive = no such curve, though single readings can be large or run the other way. A potency beside an inconclusive call is a rough fit, not a confirmed value.

What follows are compounds tested against Bromodomain adjacent to zinc finger domain protein 2B (Homo sapiens) (UniProt Q9UIF8) (assay: qHTS Assay for Inhibitors of BAZ2B). Details: AlphaScreen BAZ2B-H3K14Ac peptide displacement; activity change, negative = inhibition: at 114 µM (top of the series).
Procedure, shortened: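 AlphaScreen displacement of biotin-H3(5-23)K14Ac peptide (50 nM final) from BAZ2B (50 nM final) in PBS pH 7.4, 0.01% Tween-20; complex preformed 30 min RT, then compounds (top 110 uM) 30 min RT, beads 20 min dark.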
% is set by controls: 0 for no effect and ±100 for the full control effect; potency is the fitted concentration of half-maximal effect; tags give direction and shape of the fitted curve.
Note: nearly all actives have a fitted effect of over 60% in size.

Chain of UniProt Q9UIF8 (Q9UIF8 whole entry, looked up, the tested form may be a part): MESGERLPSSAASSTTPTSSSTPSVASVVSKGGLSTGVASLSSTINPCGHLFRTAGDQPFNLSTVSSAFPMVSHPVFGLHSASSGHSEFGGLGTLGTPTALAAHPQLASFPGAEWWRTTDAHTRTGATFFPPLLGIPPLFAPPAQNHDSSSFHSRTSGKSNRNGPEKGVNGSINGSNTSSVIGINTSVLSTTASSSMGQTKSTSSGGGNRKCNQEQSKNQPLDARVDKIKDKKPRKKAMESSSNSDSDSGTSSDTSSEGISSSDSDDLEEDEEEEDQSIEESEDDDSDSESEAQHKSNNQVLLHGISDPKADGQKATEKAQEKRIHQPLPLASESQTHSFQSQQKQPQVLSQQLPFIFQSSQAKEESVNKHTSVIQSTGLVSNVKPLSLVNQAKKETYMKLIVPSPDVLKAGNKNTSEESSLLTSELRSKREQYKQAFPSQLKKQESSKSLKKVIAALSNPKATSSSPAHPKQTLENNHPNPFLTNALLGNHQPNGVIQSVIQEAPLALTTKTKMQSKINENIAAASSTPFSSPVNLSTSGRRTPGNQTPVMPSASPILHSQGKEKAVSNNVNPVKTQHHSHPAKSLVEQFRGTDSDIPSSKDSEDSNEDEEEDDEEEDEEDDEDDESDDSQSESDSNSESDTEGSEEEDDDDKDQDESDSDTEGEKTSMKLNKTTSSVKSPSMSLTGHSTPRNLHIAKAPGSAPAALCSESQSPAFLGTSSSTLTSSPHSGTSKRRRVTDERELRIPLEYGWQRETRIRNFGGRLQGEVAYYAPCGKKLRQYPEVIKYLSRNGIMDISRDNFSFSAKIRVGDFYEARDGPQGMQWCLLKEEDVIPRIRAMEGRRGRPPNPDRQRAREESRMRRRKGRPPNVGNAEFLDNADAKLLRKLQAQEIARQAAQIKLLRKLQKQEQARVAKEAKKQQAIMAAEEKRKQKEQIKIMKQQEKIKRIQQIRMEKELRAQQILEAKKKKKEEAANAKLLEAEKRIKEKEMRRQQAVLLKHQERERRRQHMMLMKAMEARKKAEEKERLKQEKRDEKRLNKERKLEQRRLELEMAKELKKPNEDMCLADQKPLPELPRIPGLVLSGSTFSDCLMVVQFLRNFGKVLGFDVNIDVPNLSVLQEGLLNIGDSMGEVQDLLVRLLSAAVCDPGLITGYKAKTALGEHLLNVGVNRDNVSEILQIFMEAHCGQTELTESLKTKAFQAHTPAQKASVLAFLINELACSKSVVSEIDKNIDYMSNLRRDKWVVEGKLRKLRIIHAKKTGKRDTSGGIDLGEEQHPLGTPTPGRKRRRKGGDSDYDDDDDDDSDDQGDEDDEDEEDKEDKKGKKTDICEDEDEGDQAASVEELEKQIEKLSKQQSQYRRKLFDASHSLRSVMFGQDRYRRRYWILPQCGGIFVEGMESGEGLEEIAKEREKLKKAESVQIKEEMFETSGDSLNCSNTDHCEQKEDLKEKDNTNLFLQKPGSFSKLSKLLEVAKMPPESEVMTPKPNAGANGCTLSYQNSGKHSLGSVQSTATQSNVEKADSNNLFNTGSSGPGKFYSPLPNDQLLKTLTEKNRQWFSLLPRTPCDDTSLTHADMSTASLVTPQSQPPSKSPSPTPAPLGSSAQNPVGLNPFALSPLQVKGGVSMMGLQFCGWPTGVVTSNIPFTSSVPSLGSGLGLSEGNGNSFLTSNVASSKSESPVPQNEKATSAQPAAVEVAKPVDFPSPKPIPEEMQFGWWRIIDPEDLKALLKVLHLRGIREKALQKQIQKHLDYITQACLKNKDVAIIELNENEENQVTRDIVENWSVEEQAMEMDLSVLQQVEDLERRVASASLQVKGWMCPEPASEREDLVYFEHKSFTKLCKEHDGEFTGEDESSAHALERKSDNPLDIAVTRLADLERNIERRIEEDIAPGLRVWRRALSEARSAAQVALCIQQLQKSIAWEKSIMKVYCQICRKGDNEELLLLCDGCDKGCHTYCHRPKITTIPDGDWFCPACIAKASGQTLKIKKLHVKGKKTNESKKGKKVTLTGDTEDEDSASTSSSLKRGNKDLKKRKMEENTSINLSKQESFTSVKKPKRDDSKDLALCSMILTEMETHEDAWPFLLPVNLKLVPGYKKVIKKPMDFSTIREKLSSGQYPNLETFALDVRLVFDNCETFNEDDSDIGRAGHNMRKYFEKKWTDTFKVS

SMILES	activity change, negative = inhibition	Potency
Cc1cccc(C)c1NC(=S)NCCCN1CCCC1=O	inactive: -28.1%	
O=C(NC(=S)Nc1cccc2cc(O)ccc12)c1ccccc1Br		inconclusive: 39.8 µM [inhibitor, partial curve]
CCN=c1scc(-c2ccc3c(c2)NC(=O)CO3)n1N=C1CCCC1		active: 50.1 µM
C=CCNC(=O)c1ccccc1NC(=O)C1COc2ccccc2O1 (configuration not stated)	inactive: -25.9%	
Clc1cccc(CN2CCc3c([nH]c4ccccc34)C2)c1Cl		active: 22.4 µM
COc1ccc(Cl)cc1NC(=O)CN(C)C(=O)CCCc1c[nH]c2ccccc12		inconclusive: 25.1 µM [inhibitor, full curve]
Cc1ccccc1C(=O)NC(=S)Nc1ccccc1N1CCCC1		active: 25.1 µM
C=C(C(=O)Nc1ccccc1)c1ccc(C)cc1	inactive: 38.5%	
Cc1ccc(-n2nc(CO)c(C(=O)NCc3ccccn3)n2)cc1C		inconclusive: 89.1 µM [inhibitor, single point]
COc1ccc(OC)c(-c2csc(NC(=O)c3ccc(F)cc3)n2)c1		inconclusive: 39.8 µM [inhibitor, partial curve]
O=C(CN1C(=O)c2ccccc2S1(=O)=O)NCc1ccccn1		inconclusive: 79.4 µM [inhibitor, partial curve]
CNc1nc(N2CCc3ccccc32)ncc1F		inconclusive: 50.1 µM [inhibitor, partial curve]
C=CCc1ccccc1OCC(=O)NNC(=S)NCc1ccccc1		inconclusive: 89.1 µM [inhibitor, partial curve]
CCC(=O)N1CCc2cc(S(=O)(=O)N3CCc4ccccc4C3)ccc21		inconclusive: 89.1 µM [inhibitor, single point]
Cc1cccc(CNC(=O)Cn2nc(C)n3c(cc4cc(F)ccc43)c2=O)c1	inactive: 1.96%	
O=C(CNCC1CCCO1)N1CCCc2ccccc21 (configuration not stated)		active: 56.2 µM
COc1cccc(C(=O)N2CCN(S(C)(=O)=O)CC2)c1	inactive: 0.0867%	
O=C(c1cccc(NS(=O)(=O)c2ccc(Br)cc2)c1)N1CCCCC1	inactive: 5.91%	
Cc1ccc(S(=O)(=O)N2CCCOC2CNC(=O)C(=O)NCCCn2ccnc2)cc1 (configuration not stated)		active: 50.1 µM
Cn1c(=O)c2c(nc(NCc3ccccc3)n2Cc2ccccc2)n(C)c1=O		inconclusive: 70.8 µM [inhibitor, single point]
COc1ccc(NC(=O)c2cccnc2)cc1	inactive: 5.79%	
O=C(COc1ccc(/C=C2/NC(=O)NC2=O)cc1)Nc1ccc(F)cc1		inconclusive: 44.7 µM [inhibitor, partial curve]
CC(=O)NC1C(=O)N(CCN2CCOCC2)c2ccc(F)cc21 (configuration not stated)		active: 10 µM
N#Cc1c(NC(=O)C2CC(Cl)=CCC2C(=O)O)sc2c1CCCCC2 (configuration not stated)		inconclusive: 70.8 µM [inhibitor, partial curve]
CCOC(=O)N1CCN(c2c(NCCCN(CC)c3cccc(C)c3)c(=O)c2=O)CC1	inactive: 0.919%	
CCS(=O)(=O)N1CCN(C(C)CCc2ccccc2)CC1 (configuration not stated)		inconclusive: 89.1 µM [inhibitor, single point]

SMILES	activity change, negative = inhibition	Potency
COc1ccc(CNC(=O)C/C(C)=N/NC(=O)Cc2ccc(OC)c(OC)c2)cc1	inactive: -0.145%	
CCc1ccc(-n2nc(C)c3c(C)cc(=O)n(CC(=O)N4CCCc5ccccc54)c32)cc1	inactive: -11%	
Clc1ccc(/C(Cc2nc3ccccc3[nH]2)=N\Nc2ccccc2)cc1		inconclusive: 12.6 µM [inhibitor, partial curve]
COc1cc(Cl)c(C)cc1NC(=O)CSc1nnc(-c2ccco2)n1CC(C)C		inconclusive: 44.7 µM [inhibitor, partial curve]
C=CCn1c(Oc2ccccc2)nc2c1c(=O)n(C)c(=O)n2C		inconclusive: 79.4 µM [inhibitor, partial curve]
CCN1C(=O)CC(N2CCC(C(=O)N3CCCCCC3)CC2)C1=O (configuration not stated)		inconclusive: 89.1 µM [inhibitor, single point]
Nc1nc(Nc2ccccc2F)sc1C(=O)c1ccc(Cl)cc1		inconclusive: 44.7 µM [inhibitor, partial curve]
CCOC(=O)C1=C2c3ccc4ccccc4c3CC(C)(C)N2C(=O)C1=O	inactive: -2.07%	
O=C(COc1ccccc1F)NNC(=O)c1ccc(N2CCCCC2)c([N+](=O)[O-])c1		inconclusive: 79.4 µM [inhibitor, single point]
Fc1ccc(CNc2ccccn2)cc1	inactive: 5.21%	
CCOC(=S)SCC(=O)N1CCc2cc(OC)ccc2C1C1C(=O)CCCC1=O (configuration not stated)		inconclusive: 89.1 µM [inhibitor, single point]
Cc1ccc(C)n1Cc1ccc(C(=O)O)cc1		active: 15.8 µM
C=CCn1c(=NC(=O)c2sc3ccccc3c2Cl)sc2cc(S(N)(=O)=O)ccc21		inconclusive: 89.1 µM [inhibitor, single point]
O=C(NCCCN1CCCC1)c1ccc(CS(=O)(=O)c2c(Cl)cccc2Cl)o1		inconclusive: 79.4 µM [inhibitor, single point]
COc1ccc(CCNC(=O)Nc2ccc([N+](=O)[O-])cc2)cc1OC	inactive: -32.3%	
Cc1cc(Br)ccc1N=C1C(=O)Nc2ccccc21		inconclusive: 50.1 µM [inhibitor, partial curve]
C#CCOCCOCCOCCNc1nc(N2CCN(C(=O)[C@H](C)n3cc(CCCN=C(N)N)nn3)CC2)nc(N2CCN(C(=O)[C@H](Cc3ccc(O)cc3)n3cc(CCO)nn3)CC2)n1		inconclusive: 79.4 µM [inhibitor, single point]
CCN(CC)c1ccc(/C=N/NC(=S)NCc2ccccc2)cc1		inconclusive: 35.5 µM [inhibitor, full curve]
CC(C)CCN1C(=O)c2ccc(C(=O)NCc3ccccn3)cc2C1=O		inconclusive: 100 µM [inhibitor, single point]
CCC(=O)C(C#N)(c1ccc(OC)c(OC)c1)C(C)C (configuration not stated)	inactive: -0.0093%	
CCc1nnc(NS(=O)(=O)c2ccccc2)s1	inactive: -18.7%	
COc1ccc(/C=N/n2c(N)nc(-c3ccccc3)c2-c2ccccc2)cc1		inconclusive: 39.8 µM [inhibitor, partial curve]
COc1ccccc1OCCCCN1CCCCC1	inactive: -35%	
Oc1ccc(/C=N/NC(=S)Nc2cccnc2)c(O)c1		active: 2.82 µM
Cn1cccc1C(=O)NC(=O)COC(=O)CC12CC3CC(CC(Br)(C3)C1)C2		inconclusive: 89.1 µM [inhibitor, single point]
COc1ccc(Nc2nc(N)nc(CN3CCOCC3)n2)cc1		active: 79.4 µM

SMILES	activity change, negative = inhibition	Potency
Cc1ccc(Nc2c([N+](=O)[O-])ccc3c2=NC2(CCCCC2)N=3)cc1		active: 3.55 µM
CCn1cc(C(=O)NCCCN(C)C)c(=O)c2cc(F)c(N3CCN(C)CC3)cc21	inactive: 2.08%	
O=C(Oc1ccc(Br)cc1C(=S)N1CCOCC1)c1ccc(F)cc1		inconclusive: 70.8 µM [inhibitor, single point]
COc1ccc(-n2cnnc2SCC(=O)NC2CCS(=O)(=O)C2)cc1 (configuration not stated)		inconclusive: 100 µM [inhibitor, single point]
COc1ccc(C2C(C#N)=C(N)N(c3ncn[nH]3)C3=C2C(=O)CCC3)cc1 (configuration not stated)		active: 79.4 µM
CC(C)(C)C1=C(C#N)C(c2ccc3c(c2)OCO3)C(C#N)=C(N)O1 (configuration not stated)	inconclusive: -39.9% [inhibitor]	
Cc1ccc(CNC(=O)c2cc3c(s2)-c2ccccc2SC3)cc1	inactive: -3.21%	
Cc1nc(CNC(=O)C2CCC(=O)N(Cc3cccc(F)c3)C2)sc1C (configuration not stated)	inactive: 2.43%	
Cc1ccc(OCC(=O)N/N=C/C=C/c2ccco2)c(Br)c1	inactive: -28.9%	
CN(C)c1ncc(/C=C2/C(=O)NC(=S)N(C3CCCCC3)C2=O)cn1		inconclusive: 79.4 µM [inhibitor, single point]
CCNc1c(NC(=O)C2CCC(C)CC2)c(=O)oc2ccccc12 (configuration not stated)	inactive: 5.06%	
Cc1ccc(C)c(-n2c(SCC(N)=O)nnc2-c2ccccn2)c1		active: 17.8 µM
O=C(CN1CCN(c2ccc(O)cc2)CC1)Nc1cc([N+](=O)[O-])ccc1Cl		inconclusive: 89.1 µM [inhibitor, single point]
COc1ccc(S(=O)(=O)Nc2ccc(NC(C)=O)cc2)cc1		inconclusive: 89.1 µM [inhibitor, single point]
COc1ccc2nc(NC(=O)c3ccc(-c4cccc([N+](=O)[O-])c4)o3)sc2c1		active: 79.4 µM
COc1cc(C2C(C#N)=C(N)Oc3cc(C)oc(=O)c32)cc(OC)c1OC (configuration not stated)	inactive: -1.01%	
O=C(c1ccc(F)cc1)N1c2nc(-c3ccco3)nn2C2(CCCCC2)[C@@H]2CCCC[C@@H]21		inconclusive: 25.1 µM [inhibitor, full curve, poor fit]
Cc1cc(N/N=C/c2ccccc2)nc(NCc2ccccc2)n1		inconclusive: 70.8 µM [inhibitor, single point]
CCn1c(=O)n(CC)c2cc(N3CCCC3)c(NC(=O)c3ccccc3C)cc21		inconclusive: 35.5 µM [inhibitor, partial curve]
O=[N+]([O-])c1cc(CN2CCCC2)c2cccnc2c1O		active: 5.01 µM
Cc1nsc2c1ccc1ccccc12	inactive: -2.64%	
Cc1ccc(NS(=O)(=O)c2ccc3c(c2)N(C)CCO3)cc1		inconclusive: 35.5 µM [inhibitor, full curve]
O=C1c2ccncc2C(=O)N1Cc1cccc(Cl)c1		inconclusive: 79.4 µM [inhibitor, partial curve]
COc1ccccc1CNC(=O)CCCc1nnc2n(CC(C)C)c(=O)c3sccc3n12	inactive: 14.7%	
COc1cc(/C=C/c2cccc[n+]2C)ccc1OCC(=O)Nc1cccc(Cl)c1		inconclusive: 79.4 µM [inhibitor, single point]
